Source: the RNAGym collection of RNA variant scans (doi:10.1093/nar/gkz1192)
Read counts are not given, so values of variants with three or more changes are uncertain.

B1: CPEB3 Ribozyme (parent)
chain: UAACAGGGGGCCACAGCAGAAGCGUUCACGUCGCAGCCCCUGUCAGAUUCUGGUGAAUCUGCGAAUUCUGCUGUAUAUCUC

Variants of: B1
Test: self-cleavage, relative activity (ratio to wild type); higher = more cleavage; in vitro, sequencing
Outline: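 After error-prone PCR and barcoding, CPEB3 ribozyme mutant libraries were transcribed with T7 RNA polymerase at 37°C for 5 hours, then given 15 min with DNase I before an EDTA stop, and they cleaved during both steps. Reverse transcription with template switching preceded Illumina sequencing. Relative activity divides a variant's cleaved/total read fraction by the unmutated ribozyme's. At least 5 reads were required per variant, and three batches were averaged.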
For A15G A35G G52A A56G U58A, the self-cleavage was 0.25. A15G A35G U41C U58C A64G gave a self-cleavage of 0.41. Variant A15G A35G U43C A65C U74C has a self-cleavage of 0.14. In the case of A15G A35G U48C A57U U66C U67C U80C, the self-cleavage is reported as 0.06. For A15G A35G U49A A64U U67C G70A, the self-cleavage was 0.1. For A15G A35G U49C, the self-cleavage was 0.3. A15G A35G U51A C62A showed a self-cleavage of 0.16. Variant A15G A35G U54A has a self-cleavage of 0.77. For A15G A35G U58C, the self-cleavage was 0.38. Variant A15G A35G U60A has a self-cleavage of 0.43. Work on A15G A35G U60C yielded a self-cleavage of 0.18. Work on A15G A35G U60G U80C yielded a self-cleavage of 0.1. A15G A35G U66C U74C gave a self-cleavage of 0.56. For A15G A35G U72A, the self-cleavage was 0.41. A15G A35G U72C showed a self-cleavage of 1.06. With A15G A35G U76C the self-cleavage was 0.64. With A15G A35G U78A the self-cleavage was 0.74. For A15G A35U A47U, the self-cleavage was 0.17. Work on A15G A35U A57G U72C yielded a self-cleavage of 0.72. With A15G A35U A65G U66C A75G C81A the self-cleavage was 0.07. Variant A15G A35U C38A U43G U54C has a self-cleavage of 0.13. With A15G A35U C39A U48C U72A the self-cleavage was 0.06. For A15G A35U C39A U60C U67A U80G, the self-cleavage was 0.04. Work on A15G A35U G36A yielded a self-cleavage of 0.11. A15G A35U G36C A47G U48C U49C U78C gave a self-cleavage of 0.18. In the case of A15G A35U G42A U51A, the self-cleavage is reported as 0.26. For A15G A35U U41C, the self-cleavage was 0.46. A15G A35U U41C A45C showed a self-cleavage of 0.17. Variant A15G A35U U41C A45U A47G U72A has a self-cleavage of 0. A15G A35U U41C U43C showed a self-cleavage of 0.07. In the case of A15G A35U U41C U69A, the self-cleavage is reported as 0.25. A15G A35U U48C U67C C68G gave a self-cleavage of 0.16. Work on A15G A35U U48C U74C yielded a self-cleavage of 0.24. For A15G A35U U51A A64U U66C, the self-cleavage was 0.13. Work on A15G A35U U54A yielded a self-cleavage of 0.49. Work on A15G A35U U66A U72C yielded a self-cleavage of 0.27. With A15G A35U U76A the self-cleavage was 0.61. A15G A45G A47G gave a self-cleavage of 0.25. A15G A45G A47G U69A showed a self-cleavage of 0.16. A15G A45G A47U G52A U80C gave a self-cleavage of 0.33. With A15G A45G A56U U67C the self-cleavage was 0.13. Variant A15G A45G A57G has a self-cleavage of 0.42. With A15G A45G A57G U60A U67C the self-cleavage was 0.24. For A15G A45G A64G U67C U74C, the self-cleavage was 0.17. For A15G A45G A64U, the self-cleavage was 0.36. Variant A15G A45G C62U U80C has a self-cleavage of 0.28. Work on A15G A45G U51A yielded a self-cleavage of 0.76. With A15G A45G U51C the self-cleavage was 0.4. With A15G A45G U51C U54C A64G U74A the self-cleavage was 0.16. For A15G A45G U58C U78A, the self-cleavage was 0.41. With A15G A45G U66C U69A the self-cleavage was 0.26. A15G A45U A47G A64G U69C U80A gave a self-cleavage of 0.07. A15G A45U A57G A65G gave a self-cleavage of 0.18. A15G A45U U48A showed a self-cleavage of 0.11. With A15G A45U U58C U69C U78G U80G the self-cleavage was 0.09. A15G A45U U60A U72C showed a self-cleavage of 0.32. In the case of A15G A45U U69C U74C A75G, the self-cleavage is reported as 0.12. Work on A15G A45U U74C yielded a self-cleavage of 0.62. For A15G A47C A57G U80C, the self-cleavage was 0.28. A15G A47C U49A U80A gave a self-cleavage of 0.16. With A15G A47C U67A the self-cleavage was 0.14. Work on A15G A47G A56U U67A A75U yielded a self-cleavage of 0.17. For A15G A47G A56U U69C, the self-cleavage was 0.23. For A15G A47G A56U U74A, the self-cleavage was 0.46. Variant A15G A47G C50A U51C U54C U74A C81A has a self-cleavage of 0.65. With A15G A47G U48A U49G the self-cleavage was 0.05. A15G A47G U49A U54A showed a self-cleavage of 0.07. A15G A47G U49C U60C G63U showed a self-cleavage of 0.18. With A15G A47G U51C the self-cleavage was 0.79. For A15G A47G U51C U76C, the self-cleavage was 0.67. Variant A15G A47G U54A has a self-cleavage of 0.84. For A15G A47G U54C G63A, the self-cleavage was 0.68. With A15G A47G U58A U72A the self-cleavage was 0.16. A15G A47G U60A U78C showed a self-cleavage of 0.16. For A15G A47G U60C, the self-cleavage was 0.21. In the case of A15G A47G U66C, the self-cleavage is reported as 0.28. In the case of A15G A47G U67C, the self-cleavage is reported as 0.23. In the case of A15G A47G U67C U72A, the self-cleavage is reported as 0.12. A15G A47G U74C showed a self-cleavage of 1.29. Work on A15G A47G U80C yielded a self-cleavage of 1.07. In the case of A15G A47U U60C, the self-cleavage is reported as 0.18. In the case of A15G A56G A57U, the self-cleavage is reported as 0.24. For A15G A56G G63A U66C, the self-cleavage was 0.3. With A15G A56G U60C the self-cleavage was 0.26. Variant A15G A56G U67A has a self-cleavage of 0.18. A15G A56G U69C showed a self-cleavage of 0.25. Work on A15G A56G U72C yielded a self-cleavage of 1.12. A15G A56G U72C C79U showed a self-cleavage of 1.27. A15G A56U A64G gave a self-cleavage of 0.18. Variant A15G A56U U80C has a self-cleavage of 0.53. In the case of A15G A57C C59U C81U, the self-cleavage is reported as 0.22. For A15G A57C U69A U80C, the self-cleavage was 0.13. In the case of A15G A57C U80C, the self-cleavage is reported as 0.15. For A15G A57G A77U, the self-cleavage was 0.47. Variant A15G A57G C68U U69A has a self-cleavage of 0.27. A15G A57G U58A showed a self-cleavage of 0.3. Work on A15G A57G U74G yielded a self-cleavage of 1.25. For A15G A57U A64G, the self-cleavage was 0.41. With A15G A57U C62U the self-cleavage was 0.35. Work on A15G A64G G73A yielded a self-cleavage of 1.22. Work on A15G A64G U76C yielded a self-cleavage of 0.64. Variant A15G A64G U78A has a self-cleavage of 0.7. A15G A64U A75U C81U showed a self-cleavage of 0.43. With A15G A64U C79U the self-cleavage was 0.43. A15G A64U U72C C79G gave a self-cleavage of 0.39. For A15G A65G A77G U78C, the self-cleavage was 0.23. For A15G A65G G70A, the self-cleavage was 0.18. Work on A15G A65G U66C A75G C81A yielded a self-cleavage of 0.2. For A15G A65G U67C, the self-cleavage was 0.37. With A15G A65G U72A the self-cleavage was 0.18. A15G A65G U74A gave a self-cleavage of 0.52. In the case of A15G A77G U80C, the self-cleavage is reported as 1.17. A15G A77U U80A showed a self-cleavage of 1.11. For A15G A77U U80G, the self-cleavage was 0.48. For A15G C17A A21G C27U, the self-cleavage was 0.33. In the case of A15G C17A A35U U43C, the self-cleavage is reported as 0.07. In the case of A15G C17A A56G U58C G63C C79A, the self-cleavage is reported as 0.13. For A15G C17A G63C C79G, the self-cleavage was 0.15. In the case of A15G C17G U26A U51A U69C U80A, the self-cleavage is reported as 0.11. A15G C17G U41A A45U showed a self-cleavage of 0.24. Variant A15G C17G U48C G52C U54G has a self-cleavage of 0.03. Variant A15G C17U U58A has a self-cleavage of 0.35. In the case of A15G C23A C32U A45G, the self-cleavage is reported as 0.09. A15G C23G A47G gave a self-cleavage of 0.42. A15G C23G U25A U41C U67A U72G U76C gave a self-cleavage of 0.04. For A15G C23G U25C, the self-cleavage was 0.13. Variant A15G C23G U41C U67C has a self-cleavage of 0.04. In the case of A15G C23G U67G, the self-cleavage is reported as 0.17. In the case of A15G C23U A57G A64G, the self-cleavage is reported as 0.16. For A15G C23U C32A C39A U66A U80A, the self-cleavage was 0.06. A15G C23U G33A U43C C50A gave a self-cleavage of 0.1. A15G C23U U25C A28G U31G U76A showed a self-cleavage of 0.08. In the case of A15G C23U U49C, the self-cleavage is reported as 0.03. A15G C23U U60C A75U gave a self-cleavage of 0.07. Work on A15G C27G U51C yielded a self-cleavage of 0.21. Variant A15G C27U C32A U72C has a self-cleavage of 0.11. For A15G C29A A47G A56U, the self-cleavage was 0.11. A15G C29A U54C A56U A64G showed a self-cleavage of 0.18. Work on A15G C29A U72C U78C yielded a self-cleavage of 0.38. For A15G C29G A56G, the self-cleavage was 0.23. In the case of A15G C29U A35C U76C, the self-cleavage is reported as 0.12. A15G C29U A45G U51C A65G U69C U78C gave a self-cleavage of 0.07. A15G C29U U43C gave a self-cleavage of 0.07. For A15G C29U U48C U58C, the self-cleavage was 0.16. Work on A15G C29U U49G U58C yielded a self-cleavage of 0.13. In the case of A15G C29U U80C, the self-cleavage is reported as 0.21. In the case of A15G C32A C38A U41C A45C U51G, the self-cleavage is reported as 0.06. A15G C32A G55A A65U gave a self-cleavage of 0.14. Variant A15G C32A U41A A45G G55U U69A has a self-cleavage of 0.09. Variant A15G C32U A35G U51A A64G U66C U78C has a self-cleavage of 0.09. In the case of A15G C32U A35U, the self-cleavage is reported as 0.11. A15G C32U A57U gave a self-cleavage of 0.06. For A15G C32U U41A U49A U66C U72A, the self-cleavage was 0.06. Work on A15G C32U U66C yielded a self-cleavage of 0.19. A15G C32U U67C showed a self-cleavage of 0.24. Variant A15G C32U U72C has a self-cleavage of 0.19. With A15G C34A A65G the self-cleavage was 0.14. A15G C34A C39G U69C showed a self-cleavage of 0.04. A15G C34A C62U showed a self-cleavage of 0.08. A15G C34U U51A U69C U80C gave a self-cleavage of 0.1. For A15G C34U U54A A57U U76C, the self-cleavage was 0.08. A15G C37U U43C U48A U54A G55U showed a self-cleavage of 0.14. A15G C38A U43A gave a self-cleavage of 0.23. A15G C38A U78C gave a self-cleavage of 0.12. In the case of A15G C38G U41C, the self-cleavage is reported as 0.15. A15G C38G U60A gave a self-cleavage of 0.35. For A15G C38U C68U, the self-cleavage was 0.49.
